This is one part of the list. Sequences were assembled here from the parent chain. Inactive controls read about 0.05.
B1: TEV protease; numbered along this chain (parent)
chain: MGESLFKGPRDYNPISSSICHLTNESDGHTTSLYGIGFGPFIITNKHLFRRNNGTLVVQSLHGVFKVKDTTTLQQHLVDGRDMIIIRMPKDFPPFPQKLKFREPQREERICLVTTNFQTKSMSSMVSDTSCTFPSGDGIFWKHWIQTKDGQCGSPLVSTRDGFIVGIHSASNFTNTNNYFTSVPKNFMELLTNQEAQQWVSGWRLNADSVLWGGHKVFMVKPEEPFQPVKEATQL

Variants of: B1
Assay: raw area under fraction-flipped curve 0-4 h after induction (AUC4h, not background-subtracted), DNA-recorder readout of cleavage of the substrate (dimensionless); higher = more cleavage of the substrate by the protease variant
Settings: temperature: 34 °C; time window: 0-4 h after rhamnose induction
Protocol: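 In vivo DNA recorder in E. coli TOP10(DE3) ΔrhaA at 34 °C. Each TEVp single-site mutant (parent TEVp 0) is paired with a single-site variant of the 7-mer TEVs (canonical ENLYFQ|S). The substrate sits between flexible linkers in a Bxb1-sfGFP-TEVs-SsrA fusion, so cleavage stabilises Bxb1 and speeds flipping of a recombination array, read by NGS. The value is the raw area under the fraction-flipped curve over 0-4 h after rhamnose induction (AUC4h), with ≥20 reads per time point. It is not background-subtracted; inactive controls average about 0.047.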
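Further: Bxb1 expression induced with 0.2% (w/v) L-rhamnose at OD600 near 0.5, cultures sampled hourly, flipped fraction per protease–substrate barcode pair counted by paired-end Illumina sequencing.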

Variant | area with substrate ENAYFQS | area with substrate ENDYFQS | area with substrate ENFYFQS | area with substrate ENGYFQS | area with substrate ENHYFQS | area with substrate ENIYFQS | area with substrate ENKYFQS | area with substrate ENMYFQS | area with substrate ENPYFQS | area with substrate ENQYFQS | area with substrate ENRYFQS | area with substrate ENSYFQS | area with substrate ENTYFQS | area with substrate ENVYFQS | area with substrate ENCYFQS | area with substrate ENEYFQS | area with substrate ENNYFQS | area with substrate ENYYFQS | area with substrate ENWYFQS
R10H | 0.049 | 0.0549 | 0.0538 | 0.0497 | 0.0592 | 0.0837 | 0.0727 | 0.074 | 0.0395 | 0.0692 | 0.0719 | 0.0587 | 0.0604 | 0.0776 | – | – | – | – | –
R10Q | 0.0534 | 0.0547 | 0.0457 | 0.0641 | 0.0641 | 0.0885 | 0.0647 | – | 0.0544 | 0.0613 | 0.076 | 0.0598 | 0.0751 | 0.0855 | 0.0682 | 0.0605 | 0.0586 | 0.058 | –
E25L | 0.0419 | 0.0596 | 0.0824 | 0.0517 | – | 0.111 | 0.0539 | – | 0.0566 | 0.0633 | 0.0636 | 0.0587 | – | 0.0784 | 0.0834 | 0.0589 | 0.0524 | 0.033 | –
K46W | 0.0552 | 0.0537 | 0.0545 | 0.077 | 0.053 | 0.055 | 0.0497 | 0.0544 | 0.0579 | 0.0554 | 0.0696 | 0.0564 | 0.0527 | 0.0605 | 0.0523 | 0.0627 | – | 0.0562 | –
K46I | 0.0536 | 0.0683 | 0.0564 | 0.0669 | 0.0749 | – | 0.0573 | 0.0529 | 0.0673 | 0.0602 | 0.0489 | 0.0606 | 0.0331 | – | 0.0557 | 0.063 | – | – | 0.0432
T44G | 0.0461 | 0.0848 | – | 0.0201 | – | – | 0.0596 | 0.0626 | 0.0279 | 0.0383 | 0.0551 | 0.0883 | 0.0617 | 0.0338 | 0.0407 | 0.0573 | 0.0667 | – | –
T44E | 0.0272 | 0.0473 | 0.065 | 0.0463 | 0.0315 | – | – | 0.0368 | 0.0295 | 0.0289 | 0.0503 | 0.057 | – | – | – | 0.05 | 0.0447 | 0.0431 | 0.0375
Q74C | 0.0509 | 0.0635 | 0.0717 | 0.0599 | 0.0471 | – | 0.0591 | – | – | 0.058 | 0.0361 | 0.0564 | 0.0717 | 0.0791 | – | 0.0548 | 0.0642 | – | –
R204C | 0.0937 | 0.0647 | 0.0679 | 0.0577 | 0.0713 | 0.114 | – | 0.0808 | 0.0621 | 0.0619 | 0.055 | 0.0633 | 0.0731 | 0.093 | 0.0518 | 0.0635 | 0.0606 | – | –
H29V | 0.0585 | 0.0687 | – | – | – | 0.121 | – | 0.059 | 0.049 | 0.0543 | 0.0473 | 0.0588 | 0.0715 | 0.0766 | – | 0.0857 | 0.0655 | – | –
A207N | 0.0699 | 0.0637 | 0.0624 | – | – | – | 0.0697 | – | 0.053 | 0.0575 | 0.0605 | 0.0597 | 0.0502 | 0.0659 | 0.082 | 0.0473 | 0.0594 | – | –
G138V | 0.0144 | – | 0.08 | 0.048 | 0.0483 | – | 0.037 | – | – | 0.0498 | – | 0.0603 | – | 0.061 | 0.0565 | 0.0355 | – | – | –
P89H | 0.0517 | 0.0612 | 0.0642 | 0.0512 | – | 0.0881 | – | – | – | 0.049 | 0.0715 | 0.0667 | 0.0526 | 0.0643 | – | – | – | – | 0.0451
D79H | 0.0576 | 0.0585 | – | – | 0.0834 | – | 0.0302 | 0.0543 | 0.0635 | 0.0658 | – | – | – | 0.0751 | – | – | 0.0502 | – | –
Q234F | 0.0483 | – | 0.068 | – | 0.0514 | 0.106 | – | – | – | 0.0538 | – | 0.0592 | – | 0.0623 | – | – | – | 0.0484 | 0.0516
K100I | 0.0752 | 0.0722 | 0.0661 | 0.0562 | 0.0689 | – | 0.0793 | – | 0.0705 | 0.0569 | 0.0615 | 0.0421 | – | 0.0636 | – | – | 0.0616 | – | –
R81K | 0.0556 | 0.0639 | – | 0.0401 | 0.0775 | 0.0903 | – | 0.0548 | – | 0.0629 | – | 0.067 | – | – | – | 0.0646 | – | – | –
M83C | 0.053 | 0.0675 | 0.0616 | 0.0543 | – | 0.0787 | 0.069 | 0.0722 | 0.0646 | 0.056 | 0.0593 | 0.0626 | – | – | 0.0561 | 0.0615 | 0.0648 | – | –
G8Q | 0.0651 | 0.0631 | – | – | 0.0633 | – | – | – | 0.0601 | 0.0729 | – | – | – | – | 0.0367 | – | – | – | 0.0323
I86W | 0.0577 | 0.0729 | 0.053 | – | 0.0594 | 0.0715 | 0.0674 | 0.0823 | 0.0585 | 0.0554 | 0.0678 | 0.0637 | 0.0541 | 0.0537 | 0.0539 | 0.0506 | 0.0613 | – | 0.0385
P222E | 0.0657 | 0.0547 | – | 0.0686 | 0.0535 | – | – | – | – | 0.0479 | 0.0495 | 0.0614 | 0.0501 | 0.0638 | – | 0.0889 | 0.0588 | 0.0245 | –
V229G | 0.0692 | 0.0596 | 0.0618 | 0.0702 | – | – | 0.0611 | 0.1 | – | 0.0518 | 0.0577 | 0.0609 | 0.0697 | 0.0657 | 0.0948 | 0.0745 | – | – | –
V229M | 0.087 | 0.0642 | 0.0638 | – | – | – | – | 0.08 | – | 0.0552 | – | 0.0599 | 0.0384 | 0.0854 | – | 0.0623 | 0.0538 | – | 0.0314
T181P | 0.0714 | – | – | 0.0456 | 0.0599 | 0.0654 | 0.0563 | 0.0558 | 0.041 | 0.0647 | 0.0554 | 0.0962 | 0.0551 | 0.0691 | 0.0656 | 0.0745 | – | 0.0659 | 0.0554
S4W | 0.0525 | 0.0647 | 0.0734 | 0.0573 | – | 0.085 | 0.0549 | 0.0694 | 0.0787 | 0.0639 | 0.0596 | 0.0673 | 0.0692 | 0.0621 | 0.0464 | 0.0675 | 0.0596 | – | –
P228V | 0.0584 | – | – | – | – | 0.129 | 0.0653 | – | 0.0474 | 0.0721 | – | 0.0595 | 0.0647 | 0.0773 | 0.0761 | 0.0568 | 0.0798 | – | –
T147W | 0.0658 | 0.12 | 0.0603 | 0.0681 | 0.0626 | 0.062 | 0.0615 | – | 0.0692 | 0.0638 | 0.0651 | 0.0649 | 0.0627 | 0.0627 | 0.0607 | 0.0625 | – | – | –

From the supplement of paper PMC12217912
